According to PubChem BioAssay AID602233 (National Center for Advancing Translational Sciences (NCATS), 2012):
About 170 (0.045%) of roughly 380,000 compounds were called active. The inconclusive results got no clear call from the source; some entries with a clear call stand among them for comparison. The call rests on the fitted dose curve; in most records, active means well fitted inhibition curve with a large enough effect; inconclusive means small, poorly fitted or top-dose-only effect; inactive means no such curve, though single readings can be large or run the other way. Potencies beside an inconclusive call are fits to weak or partial responses and may not hold up.

Target: Phosphoglycerate kinase, glycosomal (Trypanosoma brucei brucei) (UniProt P07378)
Experiment: qHTS Assay to Find Inhibitors of Phosphoglycerate Kinase; further: nearly all actives have a fitted effect of over 60% in size
Settings: PGK/GAPDH coupled, Kinase-Glo luminescence, 60 min; series mostly up to 57.5 µM
Procedure, shortened: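 Recombinant glycosomal PGK reaction used 1,3-bisphosphoglycerate generated in-well by GAPDH (100nM final) in 100mM TEA pH 7.6, 5mM MgCl2, 0.01% Tween-20. After 60 minutes at room temperature, ATP was read by Kinase-Glo Plus luminescence end-point.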
Potency means the concentration at half of the fitted maximal effect; tags describe the fitted curve by direction and shape.

Potency, inconclusive:
O=[N+]([O-])c1cc2ccccc2c(O)c1O 11.2 µM [inhibitor, partial curve], Cc1ccc(-c2csc(NC(=O)C3CC=CCC3C(=O)O)c2C(=O)OC(C)C)cc1 (centres undefined) 31.6 µM [inhibitor, partial curve, poor fit], CCCS(=O)(=O)c1cnc(C2COc3ccccc3O2)nc1N (centres undefined) 22.4 µM [inhibitor, partial curve, poor fit], Cc1ccccc1NC(=S)N(CCN(C)C)C(C)c1ccco1 (centres undefined) 28.2 µM [inhibitor, single point], COc1ccc(CNC(=O)CCS(=O)(=O)c2ccc(Br)cc2)cc1 25.1 µM [inhibitor, partial curve, poor fit], Cc1occc1C(=O)O/N=C(\N)c1ccccc1 17.8 µM [inhibitor, partial curve, poor fit], CCOc1cc(C(=O)Nc2cc3c(cc2N2CCCC2)n(C)c(=O)c(=O)n3C)cc(OCC)c1OCC 31.6 µM [inhibitor, single point], CN(CC(=O)Nc1cccc(F)c1)C(=O)c1cccc(-n2cccc2)c1 20 µM [inhibitor, single point], O=C(O)c1ccc(N/N=C/c2ccc3c(c2)OCO3)cc1 14.1 µM [inhibitor, partial curve, poor fit], CCc1nnc(NC(=O)CSc2sc3c(O)cc(=O)[nH]c3c2C#N)s1 28.2 µM [inhibitor, partial curve, poor fit], COc1ccc(OC)c2[nH]c(=O)c(CCNC(=O)C3CCCCC3)cc12 25.1 µM [inhibitor, partial curve, poor fit], Cc1occc1C(=O)NCc1cccc(CNC(=O)c2ccoc2C)c1 31.6 µM [inhibitor, single point], O=Cc1coc2ccc3ccccc3c2c1=O 35.5 µM [inhibitor, partial curve], O=C(O)c1ccc(NC(=S)NC(=O)c2ccc(-c3ccc(Br)cc3)o2)cc1 31.6 µM [inhibitor, single point], COc1c(O)cc2oc(-c3ccc(O)c(O)c3)cc(=O)c2c1O 31.6 µM [inhibitor, partial curve, poor fit], CCN(CC)c1ccc2nc3ccccc3[n+](CC)c2c1 25.1 µM [inhibitor, partial curve], CC(C)C(NC(=O)/C(=C/c1ccco1)NC(=O)c1ccc(Br)o1)C(=O)O (centres undefined) 31.6 µM [inhibitor, partial curve, poor fit], CN(CC(=O)Nc1c(Cl)cccc1Cl)C(=O)CC1OC(=O)c2ccccc21 (centres undefined) 7.94 µM [inhibitor, single point], CCn1cc(C(=O)N(C)Cc2ccccc2)c(=O)c2cc(S(=O)(=O)N3CCc4ccccc4C3)ccc21 28.2 µM [inhibitor, single point], O=C(CCS(=O)(=O)c1ccc(Br)cc1)Nc1cc(F)ccc1F 28.2 µM [inhibitor, single point], O=C(/C=C/c1ccco1)NC(=S)Nc1ccc(C(=O)O)cc1 31.6 µM [inhibitor, single point], Cc1cccc(/C(N)=N/OC(=O)c2cccs2)c1 28.2 µM [inhibitor, partial curve, poor fit], COc1cc(/C=C2\SC(=Nc3ccccc3)N(CCc3c[nH]c4ccccc34)C2=O)ccc1OC(C)C(=O)O (centres undefined) 22.4 µM [inhibitor, partial curve, poor fit], Cc1ncsc1C(=O)Nc1nc2c(s1)CCCC2 17.8 µM [inhibitor, partial curve, poor fit], COCCCNC(=S)NC1CC2CCC(C1)N2Cc1ccccc1 (centres undefined) 39.8 µM [inhibitor, single point], Cc1ccc(N=Nc2ccc3ccccc3c2O)cc1 39.8 µM [inhibitor, single point], Nc1ccc(N)c(C(=O)O)c1 11.2 µM [inhibitor, partial curve, poor fit], CC1Cc2ccccc2N1C(=O)COC(=O)c1c2c(nc3ccccc13)CCCCC2 (centres undefined) 22.4 µM [inhibitor, partial curve, poor fit], COC(=O)c1c(N)c(C#N)c2n1CCCCC2 35.5 µM [inhibitor, single point], CCOC(=O)c1c(C)n(-c2ccccc2)c2ccc(OC(=O)c3cccc(Cl)c3)cc12 14.1 µM [inhibitor, partial curve, poor fit], Nc1ncnc2c1ncn2C1OC(COP(=O)(O)O)C(O)C1O (centres undefined) 28.2 µM [inhibitor, partial curve], Cc1ccccc1NC(=O)CSc1ccsc1[N+](=O)[O-] 31.6 µM [inhibitor, single point], Cc1ccccc1Nc1nc(N)c2ccccc2n1 28.2 µM [inhibitor, single point], O=C(N/N=C/c1ccoc1)c1cc(O)cc(O)c1 25.1 µM [inhibitor, partial curve], O=[N+]([O-])c1ccc(Sc2cccc[n+]2[O-])c2nonc12 28.2 µM [inhibitor, single point], C/C(C/C(C)=C1/SC(=S)NC1=O)=C1\SC(=S)NC1=O 28.2 µM [inhibitor, single point], O=C(c1ccc(-c2nc3ccccc3s2)s1)N1CCOCC1 35.5 µM [inhibitor, single point], COc1ccc(/C=N/Nc2nncc3ccccc23)cc1 22.4 µM [inhibitor, partial curve], O=C(O)c1ccc(NC2=C/C(=N/S(=O)(=O)c3cccs3)c3ccccc3C2=O)cc1 28.2 µM [inhibitor, single point], O=C(/C=C/c1ccco1)N1CCc2ccccc21 35.5 µM [inhibitor, partial curve, poor fit], O=C(O)C1CC=CCC1C(=O)Nc1ccc2c(c1)OCCO2 (centres undefined) 22.4 µM [inhibitor, partial curve, poor fit], O=C(COC(=O)c1ccccc1Nc1cccc(C(F)(F)F)c1)NCc1ccco1 31.6 µM [inhibitor, single point], O=C(COC(=O)CCC(=O)c1cccs1)NCc1ccco1 15.8 µM [inhibitor, partial curve, poor fit], CCOc1ccc(-c2nc(SCC(=O)Nc3cc(F)ccc3F)n3[nH]c(=O)cc3n2)cc1 3.55 µM [inhibitor, partial curve, poor fit], Cc1c(Cl)cccc1NC(=S)N(CCN(C)C)C(C)c1ccco1 (centres undefined) 35.5 µM [inhibitor, single point], CC1=C(C(=O)OC(C)C)C(c2ccc(Cl)cc2)n2c(s/c(=C\c3ccc(OCC(=O)O)cc3)c2=O)=N1 (centres undefined) 7.08 µM [inhibitor, partial curve, poor fit]

Potency, inactive:
CC(NC(=O)c1cc(S(=O)(=O)N2CCOCC2)ccc1N1CCCC1)c1ccc(Cl)c(Cl)c1 (centres undefined), Cc1nc(SCc2ccc(Cl)c(Cl)c2)n[nH]1, CCOC(=O)C1Nc2ccc(C(F)(F)F)cc2C2c3ccccc3CC12 (centres undefined), CNC(=O)C(C)NS(=O)(=O)c1ccc(F)cc1 (centres undefined), CN(C)CCCNC(=O)/C(=C/c1ccc(-c2ccc([N+](=O)[O-])cc2)o1)NC(=O)c1ccccc1, Cc1onc(-c2ccccc2Cl)c1C(=O)OCC(=O)c1ccc2c(c1)OCCO2, CCOc1ccc(-c2nc3c(c(SCC(=O)Nc4ccccc4C)n2)Cc2ccccc2O3)cc1, O=C(c1ccco1)N1CCN(C(=O)c2ccc(-c3ccc([N+](=O)[O-])cc3)o2)CC1, CN(C)C(CNC(=O)c1ccc(C(F)(F)F)cc1)c1ccco1 (centres undefined), CN(CC(=O)Nc1cccc(F)c1)C(=O)C1(c2ccccc2)CC1, CC1=Nc2cc(C(=O)NC3CCCCC3)ccc2Sc2ccc(Cl)cc21, COc1ccc(NC(=S)N2CCC(C(=O)c3ccc(C)cc3)CC2)cc1, O=Cc1ccc(-c2cccc([N+](=O)[O-])c2)o1, O=C(O)c1ccccc1NS(=O)(=O)c1ccc2c3c(cccc13)C(=O)N2, COC(=O)/C=C\C(C#N)(C#N)N=Cc1ccc(OC)cc1, O=C1CCCCC1c1cccc2ccccc12 (centres undefined), O=C(N=Nc1c(O)[nH]c2ccccc12)c1ccccc1NS(=O)(=O)c1cccs1, CC(C)NC(=S)NN(c1ccccc1)c1ccccc1, O=C(NNC(=O)c1ccccc1F)c1ccc(NS(=O)(=O)c2ccc(F)cc2)cc1, CC1=C(C(=O)OC(C)C)C2(O)C(=O)c3ccccc3C2(O)N1 (centres undefined), Cc1ccc(OCc2nc(-c3ccccn3)n[nH]2)cc1

Potency, active:
C=C(C)C(=O)Oc1ccc(N=Nc2ccc(C)cc2)ccc1=O 2.82 µM, O=c1cc(-c2ccc(O)cc2)oc2c(O)c(O)c(O)c(O)c12 4.47 µM
